According to PMC4336329 (PLoS ONE, 2015):
Among all 310,000 compounds or so, about 2,200 (0.71%) showed an effect of 50% or more. Effects have a minus sign here. This is one part of the list.

Target: human ether-à-go-go-related gene (hERG) potassium channel (human, UniProt Q12809)
Test: primary screen, population patch clamp on CHO cells stably expressing hERG

human ether-à-go-go-related gene (hERG) potassium channel, sequence (Q12809 whole entry, looked up): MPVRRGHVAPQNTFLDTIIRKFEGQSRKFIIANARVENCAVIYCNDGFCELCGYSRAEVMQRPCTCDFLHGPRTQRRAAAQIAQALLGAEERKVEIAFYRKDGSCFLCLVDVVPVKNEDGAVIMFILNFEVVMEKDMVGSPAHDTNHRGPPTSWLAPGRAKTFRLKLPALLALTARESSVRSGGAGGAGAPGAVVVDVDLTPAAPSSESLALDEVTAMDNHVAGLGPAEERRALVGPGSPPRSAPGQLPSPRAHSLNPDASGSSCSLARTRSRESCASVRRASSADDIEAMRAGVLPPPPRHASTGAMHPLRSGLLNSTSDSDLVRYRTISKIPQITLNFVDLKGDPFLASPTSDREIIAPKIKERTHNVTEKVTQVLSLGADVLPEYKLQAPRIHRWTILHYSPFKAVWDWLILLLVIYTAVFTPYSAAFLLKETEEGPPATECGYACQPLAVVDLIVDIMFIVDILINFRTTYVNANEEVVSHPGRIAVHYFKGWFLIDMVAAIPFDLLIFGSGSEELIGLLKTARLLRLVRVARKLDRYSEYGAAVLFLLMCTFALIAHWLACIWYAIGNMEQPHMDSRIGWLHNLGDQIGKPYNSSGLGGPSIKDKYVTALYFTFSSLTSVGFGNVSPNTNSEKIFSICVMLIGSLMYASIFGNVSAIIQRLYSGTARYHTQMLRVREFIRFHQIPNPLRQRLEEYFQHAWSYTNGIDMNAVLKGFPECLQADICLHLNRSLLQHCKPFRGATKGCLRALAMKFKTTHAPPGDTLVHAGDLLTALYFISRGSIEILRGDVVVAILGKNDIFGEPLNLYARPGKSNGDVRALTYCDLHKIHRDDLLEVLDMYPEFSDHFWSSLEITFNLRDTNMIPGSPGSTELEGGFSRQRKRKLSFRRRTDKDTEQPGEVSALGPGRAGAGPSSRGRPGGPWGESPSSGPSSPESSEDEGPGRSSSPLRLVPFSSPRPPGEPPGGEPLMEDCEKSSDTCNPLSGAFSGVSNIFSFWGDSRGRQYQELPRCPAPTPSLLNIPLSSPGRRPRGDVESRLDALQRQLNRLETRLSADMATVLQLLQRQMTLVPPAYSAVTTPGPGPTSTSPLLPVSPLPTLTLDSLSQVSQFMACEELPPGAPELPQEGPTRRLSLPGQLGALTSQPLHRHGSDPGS

Row | Compound | hERG current change (%, negative = inhibition) at 1uM
1 | O=C(c1ccc2nc3ccc(Cl)cc3c(=O)n2c1)N1CCOCC1 | -29.3%
2 | O=C(Oc1ccc(Cl)c2ccccc12)N1CCCCC1 | 14.2%
3 | COc1cccc(C(=O)Nc2ccccc2C(=O)NC2CC2)c1 | 8.99%
4 | O=C(NCCCN1CCOCC1)c1cc(-c2ccccc2)on1 | 5.24%
5 | COc1ccc(C(=O)C(C)Sc2nnc(C3CC3)n2C2CC2)cc1 (stereo not drawn) | 10.7%
6 | Cc1c(C(=O)CN2CCN(c3ccccc3)CC2)c2ccccc2n1C | 15.7%
7 | c1ccc2sc(NN=C3CCCC3)nc2c1 | 11.6%
8 | O=C(Cn1cc([N+](=O)[O-])cn1)NCc1ccc(-n2cccn2)cc1 | 0.0873%
9 | CN(C)c1nc2n(c(=S)n1)CCS2 | 7.21%
10 | COCCCN(CCCN)Cc1ccco1 | 11.1%
11 | CCn1c(SCC(=O)N/N=C/c2ccc(C)o2)nnc1-c1ccc(C(C)(C)C)cc1 | -1.43%
12 | CC(C)c1ccc(S(=O)(=O)N2CCN(C(=O)c3ccncc3)CC2)cc1 | 2.2%
13 | Cc1cccc(OCCNc2cc(N3CCN(CCO)CC3)ccc2[N+](=O)[O-])c1.Cl | 2.14%
14 | O=C(c1ccncc1)N(Cc1ccco1)Cc1cc2ccccc2[nH]c1=O | -11.4%
15 | C=CCNC(=S)NNC(=O)C(CCC(C)C)CC(C)(C)O (stereo not drawn) | -1.52%
16 | O=C(Nc1ccccc1Cl)c1ccccc1Cc1ccccc1 | 7.35%
17 | Cc1sc2nc(CSCC(=O)Nc3ccc(OC(F)F)cc3)[nH]c(=O)c2c1C | -12.6%
18 | CN(CC(=O)NCc1cccc(F)c1)C(=O)c1ccco1 | 2.28%
19 | Cc1cc(C)c(NC(=O)CO/N=C2\CCCc3nonc32)c(C)c1 | 3.23%
20 | Cc1cc(C)cc(NC(=S)N2C3CCCC2CC(NC(=O)C2CC2)C3)c1 (stereo not drawn) | 1.42%
21 | CSc1nnnn1-c1ccc(C(=O)OCC(=O)N2CCOCC2)cc1 | 9.77%
22 | O=C(Cc1ccccc1)NC(c1ccco1)c1c(O)ccc2ccccc12 (stereo not drawn) | 14.1%
23 | O=C(NC1CCCCC1)c1ccccc1NC(=O)C1CC1 | 9.76%

Row | Compound | hERG current change (%, negative = inhibition) at 1uM
24 | Cc1ccc(S(=O)(=O)NCCC(=O)OCC(=O)N(C)c2ccccc2)cc1 | 19.6%
25 | O=[N+]([O-])c1ccc(O)c(/C=N/Nc2ccccn2)c1 | 13.4%
26 | COc1ccc(/C=N/S(=O)(=O)c2ccc(C)cc2)cc1 | 24.9%
27 | COC(=O)c1cc(OC)c(OC)cc1NC(=O)c1cc(-c2ccccc2)nc2ccccc12.Cl | 1.68%
28 | C=C(C)Cc1c(C)c(C#N)c2nc3ccccc3n2c1NCCCN(C)C | -7.57%
29 | CCOC(=O)c1oc2ccccc2c1COC(=O)CNC(=O)c1cccc(C)c1 | 17%
30 | CN(CC(O)COc1ccc(OCC(O)CN(C)C2CCCCC2)cc1)C1CCCCC1 (stereo not drawn) | 10.4%
31 | CCOC(=O)c1ccc(NC(=O)Nc2cc(C)cc(C)n2)cc1 | 11.4%
32 | O=C(Cc1cccs1)N/N=C/C(Br)=C/c1ccccc1 | 10.4%
33 | Cc1ccc(S(=O)(=O)N2CCN(S(C)(=O)=O)C2)cc1 | 10.8%
34 | NC(=S)NNC(=O)COc1ccccc1O | 9.22%
35 | Cc1cc(-c2ccccc2)cc(-c2ccccc2)[n+]1C.[Cl-] | 1.72%
36 | CCc1cccc(NC(=O)CN(c2ccc(C)cc2)S(=O)(=O)c2c(C)noc2C)c1 | 6.21%
37 | C=C(C)c1cccc(C(C)(C)NC(=O)N(Cc2ccccc2)Cc2ccco2)c1 | 8.1%
38 | COc1c2ccoc2c(OC[C@@H](O)C(C)(C)OC)c2oc(=O)ccc12 | 13.8%
39 | Cc1ccc(Cn2ccc(NC(=O)c3cc(-c4ccccc4)on3)n2)cc1 | 5.33%
40 | Cc1cc(OCC(=O)NCCc2c[nH]c3ccccc23)c2c(C)cc(=O)oc2c1 | 12%
41 | COC(=O)c1sccc1NC(=O)/C=C/C(=O)O | 6.32%
42 | CCN1C(=O)S/C(=C/c2c(OCc3ccc(C(=O)O)cc3)ccc3ccccc23)C1=O | 15.4%
43 | Cc1ccc(S(=O)(=O)n2cnc(C)c2)cc1 | 4.01%
44 | COc1ccccc1CNC(=O)c1cc2ccccc2oc1=O | 5.12%
45 | CCc1ccccc1NC(=S)N(CCN1CCCCCC1)Cc1ccco1 | -8.23%
